The text below walks through data of publication PMC11680366.

Protein sequences, listed by entry. Tags and fused reporters are not part of them.
UniProt O43143: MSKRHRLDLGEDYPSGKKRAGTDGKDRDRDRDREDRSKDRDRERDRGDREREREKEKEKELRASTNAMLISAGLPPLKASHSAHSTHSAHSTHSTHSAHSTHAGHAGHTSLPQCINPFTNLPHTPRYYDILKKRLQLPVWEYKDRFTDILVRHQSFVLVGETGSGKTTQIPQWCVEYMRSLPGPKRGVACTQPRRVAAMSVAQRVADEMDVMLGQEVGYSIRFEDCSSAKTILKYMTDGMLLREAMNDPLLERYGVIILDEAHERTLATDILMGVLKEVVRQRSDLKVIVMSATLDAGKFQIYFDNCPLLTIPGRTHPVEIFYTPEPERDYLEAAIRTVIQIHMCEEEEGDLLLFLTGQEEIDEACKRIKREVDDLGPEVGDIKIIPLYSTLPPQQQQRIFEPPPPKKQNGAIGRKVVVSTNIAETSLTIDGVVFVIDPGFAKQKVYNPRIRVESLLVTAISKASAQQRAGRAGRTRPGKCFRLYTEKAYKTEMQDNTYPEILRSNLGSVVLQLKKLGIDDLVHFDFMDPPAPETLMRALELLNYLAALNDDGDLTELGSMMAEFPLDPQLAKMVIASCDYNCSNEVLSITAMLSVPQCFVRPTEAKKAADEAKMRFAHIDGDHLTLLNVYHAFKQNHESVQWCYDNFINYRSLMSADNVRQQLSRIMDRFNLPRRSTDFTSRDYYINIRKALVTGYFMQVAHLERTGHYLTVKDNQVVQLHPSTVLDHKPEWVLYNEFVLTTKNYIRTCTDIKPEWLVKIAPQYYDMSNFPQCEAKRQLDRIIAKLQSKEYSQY
UniProt Q7Z434: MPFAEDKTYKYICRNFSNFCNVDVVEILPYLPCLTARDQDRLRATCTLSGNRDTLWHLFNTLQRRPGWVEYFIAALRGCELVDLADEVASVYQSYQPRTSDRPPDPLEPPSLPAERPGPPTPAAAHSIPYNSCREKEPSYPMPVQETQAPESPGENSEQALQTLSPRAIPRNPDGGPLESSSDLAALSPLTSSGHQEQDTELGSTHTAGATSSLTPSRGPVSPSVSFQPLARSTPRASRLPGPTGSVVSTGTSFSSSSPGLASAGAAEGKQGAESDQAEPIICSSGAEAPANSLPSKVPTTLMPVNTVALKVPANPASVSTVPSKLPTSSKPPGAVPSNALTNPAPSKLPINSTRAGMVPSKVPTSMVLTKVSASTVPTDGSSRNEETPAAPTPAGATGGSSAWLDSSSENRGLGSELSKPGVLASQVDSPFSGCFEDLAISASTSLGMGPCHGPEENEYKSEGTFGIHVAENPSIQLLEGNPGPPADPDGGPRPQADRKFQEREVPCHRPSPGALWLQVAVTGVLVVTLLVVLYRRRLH

Results are given in words; binding and its absence hold for the method and conditions named. In cells and extracts the contact can be indirect. Some binding calls cover weakened binding; strength is not graded here.

For assay [1], the target named is Myc-DHX15 (DEAH-box polypeptide 15) (human) (UniProt O43143). In words: co-IP; HT1080 cells expressing Myc-DHX15 for 24 h, then transfected with 2-5A (10 uM) or RL RNAs (2 ug/mL) for 8 h; 500 ug of lysate (0.5% NP-40, 90 mM KCl, 20 mM Tris pH 7.5) on Myc-tag beads, 4 °C, 16 h; Rig-I and MAVS detected by immunoblot. For orientation: Immunoblotting shows a protein as a band on a membrane.

For assay [2] the target is unchanged. The assay can be described thus: co-IP; as a1, but mock-treated HT1080 cells expressing Myc-DHX15 (no 2-5A); Myc-tag beads; Rig-I and MAVS probed by immunoblot.
Assay [3] has the same target. The assay can be described thus: condition: only cells transfected with control RNAs (without RL RNAs); co-IP; as a1, but HT1080 cells expressing Myc-DHX15 transfected with control small RNAs (Ctrl RNAs, 2 ug/mL) for 8 h; Myc-tag beads; Rig-I and MAVS probed by immunoblot.

On to “Mitochondrial antiviral signaling (MAVS) (from UniProt Q7Z434 1-540)”, for which the binding result in assay [1] was “binds”; in assay [2], “no binding (condition: mock-treated cells (without 2-5A))”; in assay [3], “no binding”.

B1: Retinoic acid-inducible gene I (Rig-I) (protein, UniProt O95786 1-925)
chain: MTTEQRRSLQAFQDYIRKTLDPTYILSYMAPWFREEEVQYIQAEKNNKGPMEAATLFLKFLLELQEEGWFRGFLDALDHAGYSGLYEAIESWDFKKIEKLEEYRLLLKRLQPEFKTRIIPTDIISDLSECLINQECEEILQICSTKGMMAGAEKLVECLLRSDKENWPKTLKLALEKERNKFSELWIVEKGIKDVETEDLEDKMETSDIQIFYQEDPECQNLSENSCPPSEVSDTNLYSPFKPRNYQLELALPAMKGKNTIICAPTGCGKTFVSLLICEHHLKKFPQGQKGKVVFFANQIPVYEQQKSVFSKYFERHGYRVTGISGATAENVPVEQIVENNDIIILTPQILVNNLKKGTIPSLSIFTLMIFDECHNTSKQHPYNMIMFNYLDQKLGGSSGPLPQVIGLTASVGVGDAKNTDEALDYICKLCASLDASVIATVKHNLEELEQVVYKPQKFFRKVESRISDKFKYIIAQLMRDTESLAKRICKDLENLSQIQNREFGTQKYEQWIVTVQKACMVFQMPDKDEESRICKALFLYTSHLRKYNDALIISEHARMKDALDYLKDFFSNVRAAGFDEIEQDLTQRFEEKLQELESVSRDPSNENPKLEDLCFILQEEYHLNPETITILFVKTRALVDALKNWIEGNPKLSFLKPGILTGRGKTNQNTGMTLPAQKCILDAFKASGDHNILIATSVADEGIDIAQCNLVILYEYVGNVIKMIQTRGRGRARGSKCFLLTSNAGVIEKEQINMYKEKMMNDSILRLQTWDEAVFREKILHIQTHEKFIRDSQEKPKPVPDKENKKLLCRKCKALACYTADVRVIEECHYTVLGDAFKECFVSRPHPKPKQFSSFEKRAKIFCARQNCSHDWGIHVKYKTFEIPVIKIESFVVEDIATGVQTLYSKWKDFHFEKIPFDPAEMSK
Turning to B1, the binding result is recorded as “binds” in assay [1], “no binding (condition: mock-treated cells (without 2-5A))” in assay [2] and “no binding” in assay [3].
